Test results reported in patent publication US8304419B2, “Chemical compounds” (priority 2007, dated 2012).

What was measured:
Test in all cases: microbe, parasite or virus in culture
HIV-1 K103N RT mutant = system: HIV-1 K103N RT mutant
HIV-1 V106A RT mutant = system: HIV-1 V106A RT mutant
HIV-1 Y181C RT mutant = system: HIV-1 Y181C RT mutant
[1] = Human immunodeficiency virus 1, HeLa, read-out: K103N activity level, HeLa-CD4-LTR-β-gal cells, K103N virus
[2] = Human immunodeficiency virus 1, HeLa, read-out: V106A activity level, HeLa-CD4-LTR-β-gal cells, V106A virus
[3] = Human immunodeficiency virus 1, HeLa, read-out: Y181C activity level, HeLa-CD4-LTR-β-gal cells, Y181C virus

Structure (SMILES)	pIC50 (HIV-1 K103N RT mutant; [1])	pIC50 (HIV-1 V106A RT mutant; [2])	pIC50 (HIV-1 Y181C RT mutant; [3])	pIC50 (HIV-1 K103N RT mutant; read-out: K103N activity level, HeLa-CD4-LTR-β-gal cells, K103N virus, trifluoroacetate)	pIC50 (HIV-1 V106A RT mutant; read-out: V106A activity level, HeLa-CD4-LTR-β-gal cells, V106A virus, trifluoroacetate)	pIC50 (HIV-1 Y181C RT mutant; read-out: Y181C activity level, HeLa-CD4-LTR-β-gal cells, Y181C virus, trifluoroacetate)
N#Cc1cc(Cl)cc(Oc2cc(CNC(=O)c3ccc(S(N)(=O)=O)cc3Cl)ccc2Cl)c1 [Example 4, 4-(aminosulfonyl)-2-chloro-N-({4-chloro-3-[(3-chloro-5-cyanophenyl)oxy]phenyl}methyl)benzamide trifluoroacetate]	6.00 to 8.00	< 6.00	< 6.00			
COc1ccc2c(C(=O)NCc3ccc(Cl)c(Oc4cc(Cl)cc(C#N)c4)c3)c[nH]c2c1 [Example 3, N-({4-chloro-3-[(3-chloro-5-cyanophenyl)oxy]phenyl}methyl)-6-(methyloxy)-1H-indole-3-carboxamide]	< 6.00	< 6.00	< 6.00			
CS(=O)(=O)c1ccc(C(=O)NCc2ccc(Cl)c(Oc3cc(Cl)cc(C#N)c3)c2)c(Cl)c1 [Example 8, 2-chloro-N-({4-chloro-3-[(3-chloro-5-cyanophenyl)oxy]phenyl}methyl)-4-(methylsulfonyl)benzamide]	< 6.00	< 6.00	< 6.00			
N#Cc1cc(Cl)cc(Oc2c(Cl)ccc(CNC(=O)c3cc4cc(OCCN5CCOCC5)ccc4[nH]3)c2F)c1 [Example 103, N-({4-chloro-3-[(3-chloro-5-cyanophenyl)oxy]-2-fluorophenyl}methyl)-5-{[2-(4-morpholinyl)ethyl]oxy}-1H-indole-2-carboxamide]	> 8.00	6.00 to 8.00	> 8.00			
CN(Cc1ccc(Cl)c(Oc2cc(Cl)cc(C#N)c2)c1F)C(=O)c1ncc[nH]1 [Example 130, N-({4-chloro-3-[(3-chloro-5-cyanophenyl)oxy]-2-fluorophenyl}methyl)-N-methyl-1H-imidazole-2-carboxamide]	> 8.00	6.00 to 8.00	> 8.00			
N#Cc1cc(Cl)cc(Oc2c(Cl)ccc(CNC(=O)c3cc4cc(Br)ccc4[nH]3)c2F)c1 [Example 29, 5-bromo-N-({4-chloro-3-[(3-chloro-5-cyanophenyl)oxy]-2-fluorophenyl}methyl)-1H-indole-2-carboxamide]	6.00 to 8.00	6.00 to 8.00	6.00 to 8.00			
N#Cc1cc(Cl)cc(Oc2c(Cl)ccc(CNC(=O)c3cc4ccc([N+](=O)[O-])cc4[nH]3)c2F)c1 [Example 31, N-({4-chloro-3-[(3-chloro-5-cyanophenyl)oxy]-2-fluorophenyl}methyl)-6-nitro-1H-indole-2-carboxamide]	6.00 to 8.00	6.00 to 8.00	6.00 to 8.00			
CN(C)CCCOc1ccc2[nH]c(C(=O)NCc3ccc(Cl)c(Oc4cc(Cl)cc(C#N)c4)c3F)cc2c1 [Example 102, N-({4-chloro-3-[(3-chloro-5-cyanophenyl)oxy]-2-fluorophenyl}methyl)-5-{[3-(dimethylamino)propyl]oxy}-1H-indole-2-carboxamide]	> 8.00	6.00 to 8.00	> 8.00			
Cn1cncc1C(=O)NCc1ccc(Cl)c(Oc2cc(Cl)cc(C#N)c2)c1F [Example 67, N-({4-chloro-3-[(3-chloro-5-cyanophenyl)oxy]-2-fluorophenyl}methyl)-1-methyl-1H-imidazole-5-carboxamide trifluoroacetate]	6.00 to 8.00	< 6.00	< 6.00			
N#Cc1cc(Cl)cc(Oc2c(Cl)ccc(CNC(=O)c3c[nH]cn3)c2F)c1 [Example 84, N-({4-chloro-3-[(3-chloro-5-cyanophenyl)oxy]-2-fluorophenyl}methyl)-1H-imidazole-4-carboxamide trifluoroacetate]	6.00 to 8.00	6.00 to 8.00	6.00 to 8.00			
N#Cc1cc(Cl)cc(Oc2c(Cl)ccc(CNC(=O)c3cc4cc(Cl)ccc4[nH]3)c2F)c1 [Example 109, 5-chloro-N-({4-chloro-3-[(3-chloro-5-cyanophenyl)oxy]-2-fluorophenyl}methyl)-1H-indole-2-carboxamide]	6.00 to 8.00	6.00 to 8.00	6.00 to 8.00			
CS(=O)(=O)c1cc(F)cc2cc(C(=O)NCc3ccc(Cl)c(Oc4cc(Cl)cc(C#N)c4)c3F)[nH]c12 [Example 33, N-({4-chloro-3-[(3-chloro-5-cyanophenyl)oxy]-2-fluorophenyl}methyl)-5-fluoro-7-(methylsulfonyl)-1H-indole-2-carboxamide]	6.00 to 8.00	< 6.00	6.00 to 8.00			
CC(=O)Nc1ccc2[nH]c(C(=O)NCc3ccc(Cl)c(Oc4cc(Cl)cc(C#N)c4)c3F)nc2c1 [Example 125, 5-(acetylamino)-N-({4-chloro-3-[(3-chloro-5-cyanophenyl)oxy]-2-fluorophenyl}methyl)-1H-benzimidazole-2-carboxamide]	> 8.00	6.00 to 8.00	> 8.00			
N#Cc1cc(Cl)cc(Oc2c(Cl)ccc(CNC(=O)c3cc4ccc(Cl)cc4[nH]3)c2F)c1 [Example 110, 6-chloro-N-({4-chloro-3-[(3-chloro-5-cyanophenyl)oxy]-2-fluorophenyl}methyl)-1H-indole-2-carboxamide]	6.00 to 8.00	6.00 to 8.00	6.00 to 8.00			
N#Cc1cc(Cl)cc(Oc2c(Cl)ccc(CNC(=O)c3cc4cc(O)ccc4[nH]3)c2F)c1 [Example 26, N-({4-chloro-3-[(3-chloro-5-cyanophenyl)oxy]-2-fluorophenyl}methyl)-5-hydroxy-1H-indole-2-carboxamide]	> 8.00	6.00 to 8.00	> 8.00			
Cc1nnsc1C(=O)NCc1ccc(Cl)c(Oc2cc(Cl)cc(C#N)c2)c1F [Example 91, N-({4-chloro-3-[(3-chloro-5-cyanophenyl)oxy]-2-fluorophenyl}methyl)-4-methyl-1,2,3-thiadiazole-5-carboxamide]	6.00 to 8.00	6.00 to 8.00	6.00 to 8.00			
N#Cc1cc(Cl)cc(Oc2c(Cl)ccc(CNC(=O)c3cc4cc(NC(=O)c5cccnc5)ccc4[nH]3)c2F)c1 [Example 115, N-({4-chloro-3-[(3-chloro-5-cyanophenyl)oxy]-2-fluorophenyl}methyl)-5-[(3-pyridinylcarbonyl)amino]-1H-indole-2-carboxamide]	> 8.00	6.00 to 8.00	> 8.00			
N#Cc1cc(Cl)cc(Oc2c(Cl)ccc(CNC(=O)c3ccc[nH]3)c2F)c1 [Example 57, N-({4-chloro-3-[(3-chloro-5-cyanophenyl)oxy]-2-fluorophenyl}methyl)-1H-pyrrole-2-carboxamide]	> 8.00	6.00 to 8.00	> 8.00			
COC(=O)c1ccc(C(=O)NCc2ccc(Cl)c(Oc3cc(Cl)cc(C#N)c3)c2)cc1 [Example 11, Methyl 4-{[({4-chloro-3-[(3-chloro-5-cyanophenyl)oxy]phenyl}methyl)amino]carbonyl}benzoate]	< 6.00	< 6.00	< 6.00			
N#Cc1cc(Cl)cc(Oc2c(Cl)ccc(CNC(=O)c3cc4cc(NC(=O)c5ccncc5)ccc4[nH]3)c2F)c1 [Example 114, N-({4-chloro-3-[(3-chloro-5-cyanophenyl)oxy]-2-fluorophenyl}methyl)-5-[(4-pyridinylcarbonyl)amino]-1H-indole-2-carboxamide]	> 8.00	6.00 to 8.00	> 8.00			
CC(=O)c1ccc2cc(C(=O)NCc3ccc(Cl)c(Oc4cc(Cl)cc(C#N)c4)c3F)[nH]c2c1 [Example 78, 6-acetyl-N-({4-chloro-3-[(3-chloro-5-cyanophenyl)oxy]-2-fluorophenyl}methyl)-1H-indole-2-carboxamide trifluoroacetate]	> 8.00	6.00 to 8.00	6.00 to 8.00			
N#Cc1cc(Cl)cc(Oc2c(Cl)ccc(CNC(=O)c3[nH]c4ccccc4c3Br)c2F)c1 [Example 54, 3-bromo-N-({4-chloro-3-[(3-chloro-5-cyanophenyl)oxy]-2-fluorophenyl}methyl)-1H-indole-2-carboxamide trifluoroacetate]				> 8.00	> 8.00	> 8.00
N#Cc1cc(Cl)cc(Oc2c(Cl)ccc(CNC(=O)c3cn[nH]c3)c2F)c1 [Example 100, N-({4-chloro-3-[(3-chloro-5-cyanophenyl)oxy]-2-fluorophenyl}methyl)-1H-pyrazole-4-carboxamide trifluoroacetate]	6.00 to 8.00	6.00 to 8.00	6.00 to 8.00			
CC(=O)Nc1ccc2[nH]c(C(=O)NCc3ccc(Cl)c(Oc4cc(Cl)cc(C#N)c4)c3F)cc2c1 [Example 121, 5-(acetylamino)-N-({4-chloro-3-[(3-chloro-5-cyanophenyl)oxy]-2-fluorophenyl}methyl)-1H-indole-2-carboxamide]	> 8.00	6.00 to 8.00	> 8.00			
CSc1ncc(C(=O)NCc2ccc(Cl)c(Oc3cc(Cl)cc(C#N)c3)c2F)[nH]1 [Example 66, N-({4-chloro-3-[(3-chloro-5-cyanophenyl)oxy]-2-fluorophenyl}methyl)-2-(methylthio)-1H-imidazole-4-carboxamide trifluoroacetate]	6.00 to 8.00	6.00 to 8.00	6.00 to 8.00			
N#Cc1cc(Cl)cc(Oc2c(Cl)ccc(CNC(=O)c3cc4cc(OCC[C@H](O)CO)ccc4[nH]3)c2F)c1 [Example 107, N-({4-chloro-3-[(3-chloro-5-cyanophenyl)oxy]-2-fluorophenyl}methyl)-5-{[(3S)-3,4-dihydroxybutyl]oxy}-1H-indole-2-carboxamide]	> 8.00	> 8.00	> 8.00			
Cc1cc(Br)cc2cc(C(=O)NCc3ccc(Cl)c(Oc4cc(Cl)cc(C#N)c4)c3F)[nH]c12 [Example 30, 5-bromo-N-({4-chloro-3-[(3-chloro-5-cyanophenyl)oxy]-2-fluorophenyl}methyl)-7-methyl-1H-indole-2-carboxamide]	6.00 to 8.00	< 6.00	< 6.00			

pIC50: −log10 of the molar value. Where a name gives a salt, the structure may show the parent alone. Read-outs that look alike come from different tables or passages of the source.
